According to the RNAGym collection of RNA variant scans (doi:10.7554/elife.90254):
The source gives no read counts; variants with many changes may rest on few reads.

B1: LINE1-mini (parent)
chain: GGCAGAGCUCAACACAGCGUGGCAAAGUGGCUGUGGCUAGACUGCC

Variants of: B1
Assay: self-cleavage, relative activity (ratio to wild type); higher = more cleavage; in vitro, sequencing; the parent is a self-cleaving ribozyme

Row | Variant | self-cleavage
1 | C13U A14U A25U C42U | 0.07
2 | A14C U28C C37G | 0.03
3 | C13G G19C A24C G35A C37U | 0.02
4 | C13U G19U C46U | 0.02
5 | C13U G30U G35C | 0.03
6 | C13A U20A G30C G44U | 0.03
7 | A14C U20C C45G | 0.01
8 | A14G A16C A26U C31A | 0.03
9 | C13G G22C G27C G29C C31U U43C | 0.01
10 | C13U G33U G40A C45A | 0.06
11 | C13U G30C U32A C37A | 0.03
12 | C13U A16U G33C A39U | 0.02
13 | A14C C23A U43A | 0.03
14 | C13U A16C A24G C45U | 0.03
15 | C13A U28G C31U | 0.04
16 | A14G A39C C42A | 0
17 | C13G G22U G29A A39U G40A | 0.02
18 | C13U A16G G19A G30C | 0.03
19 | C13U G35A C37A | 0.05
20 | C13G G19U C46U | 0.32
21 | A14G C18A A24U G40C C46A | 0.24

Row | Variant | self-cleavage
22 | C13A U32A A39C | 0.05
23 | A14C C18G C23U G33A A41U | 0.23
24 | C13G G17U C31U | 0.02
25 | C13G U20A G27U G30A G36U | 0.09
26 | C13G A24U U28A | 0.06
27 | C13U U20A G22A C23U C31A C37U | 0.01
28 | C13U U28A G30A C31U | 0.05
29 | C13U A25U G35U | 0.29
30 | C13U G19U U20C G21C A26U G33A C46A | 0.04
31 | C13U G17C A26U | 0.02
32 | A14C G21U G22A | 0.09
33 | C13G A14G G27C U28C | 0.03
34 | C13G G17U A24C | 0.02
35 | A14C C23A U38G | 0.02
36 | C13U U34C G36A C46G | 0.06
37 | C13G G35C U38C G44U | 0.24
38 | A14C G21C C42U | 0.1
39 | A14C A24C G29U G44C | 0.06
40 | A14C G33A A41C | 0.02
41 | A14C U32A G36C C42G | 0.04
42 | A14C G17A G35U C37G | 0.04

Row | Variant | self-cleavage
43 | C13G G30C C37G U38A C45U | 0.2
44 | C13U C18A C23U G40A | 0.03
45 | C13U A14U A26C G33A U34G C37U A39C C42A | 0.03
46 | C13G U20A G21A G40A | 0.11
47 | C13U C15A C23A U38A | 0.01
48 | C13A G36U G44U | 0.05
49 | C13U G22C G40C | 0.03
50 | A14C G17A C31U | 0.01
51 | C13G G27C G29A U43C | 0.09
52 | A14C G19C U38G A41C | 0
53 | A14G C15G G29A G36C | 0.03
54 | A14C G17U C37A U38C | 0.02
55 | C13A U32A C42A U43C G44U C45G | 0
56 | A14G A16U G21A | 0.04
57 | A14C U28C U38A G40C C46U | 0.06
58 | A14C C31A C37U U43C | 0.01
59 | A14C C18G G33U | 0.03
60 | C13U A26G G29C C46G | 0.03
61 | C13U G30C C37U C45U | 0.11
62 | C13G C15A G30A | 0.12
63 | C13G C15G G21U A26C G35A C42A | 0

Row | Variant | self-cleavage
64 | C13G G27C U43C | 0.06
65 | C13U C15U G30A U43C | 0.18
66 | C13G C23A A41G C42G | 0.02
67 | A14C G22U C42U | 0.12
68 | C13U C23G U32A A41U | 0
69 | C13G C23G G40C | 0
70 | C13G U43C C45U | 0.04
71 | C13U G17C A41U | 0.03
72 | A14G C15U G29C C31G C42U | 0.04
73 | A14G C18A G30A | 0.69
74 | C13G C18G C23A C42G G44U | 0.02
75 | A14C A24U G35A | 0.05
76 | A14C A25C C31A | 0.05
77 | C13U C18U C42U | 0.03
78 | C13A U20A C23A A39G | 0.06
79 | C13U G21U U38G | 0
80 | A14G C15A C18U G29A | 0.04
81 | C13G C31U G33U G36U C42U | 0.08
82 | C13U A14U G30A G40U | 0.39
83 | C13U A25U C31G A39C | 0.03
84 | A14G A24C G27U U28A G36U | 0.04
